# PubChem BioAssay AID504339 (National Center for Advancing Translational Sciences (NCATS), 2011)
# The whole screen tested about 390,000 compounds, of which about 17,000 (4.4%) were called active. The inconclusive results got no clear call from the source; some entries with a clear call stand among them for comparison. The call rests on the fitted dose curve; in most records, active means well fitted inhibition curve with a large enough effect; inconclusive means small, poorly fitted or top-dose-only effect; inactive means no such curve, though single readings can be large or run the other way. Where the call is inconclusive, the potency comes from a doubtful curve fit.
# Molecular target: Lysine-specific demethylase 4A (Homo sapiens) (UniProt O75164)
# Experiment: qHTS Assay for Inhibitors of JMJD2A-Tudor Domain; further: nearly all actives have a fitted effect of over 50% in size
# Conditions: AlphaScreen JMJD2A-Tudor / H3K4me3 peptide binding; activity change, negative = inhibition: at 114 µM (top of the series)
# On the % scale 0 is the no-effect control and ±100 the full control effect; potency means the concentration at half of the fitted maximal effect; tags describe the fitted curve by direction and shape.
# Sequence of UniProt O75164 (O75164 whole entry, looked up, the tested form may be a part): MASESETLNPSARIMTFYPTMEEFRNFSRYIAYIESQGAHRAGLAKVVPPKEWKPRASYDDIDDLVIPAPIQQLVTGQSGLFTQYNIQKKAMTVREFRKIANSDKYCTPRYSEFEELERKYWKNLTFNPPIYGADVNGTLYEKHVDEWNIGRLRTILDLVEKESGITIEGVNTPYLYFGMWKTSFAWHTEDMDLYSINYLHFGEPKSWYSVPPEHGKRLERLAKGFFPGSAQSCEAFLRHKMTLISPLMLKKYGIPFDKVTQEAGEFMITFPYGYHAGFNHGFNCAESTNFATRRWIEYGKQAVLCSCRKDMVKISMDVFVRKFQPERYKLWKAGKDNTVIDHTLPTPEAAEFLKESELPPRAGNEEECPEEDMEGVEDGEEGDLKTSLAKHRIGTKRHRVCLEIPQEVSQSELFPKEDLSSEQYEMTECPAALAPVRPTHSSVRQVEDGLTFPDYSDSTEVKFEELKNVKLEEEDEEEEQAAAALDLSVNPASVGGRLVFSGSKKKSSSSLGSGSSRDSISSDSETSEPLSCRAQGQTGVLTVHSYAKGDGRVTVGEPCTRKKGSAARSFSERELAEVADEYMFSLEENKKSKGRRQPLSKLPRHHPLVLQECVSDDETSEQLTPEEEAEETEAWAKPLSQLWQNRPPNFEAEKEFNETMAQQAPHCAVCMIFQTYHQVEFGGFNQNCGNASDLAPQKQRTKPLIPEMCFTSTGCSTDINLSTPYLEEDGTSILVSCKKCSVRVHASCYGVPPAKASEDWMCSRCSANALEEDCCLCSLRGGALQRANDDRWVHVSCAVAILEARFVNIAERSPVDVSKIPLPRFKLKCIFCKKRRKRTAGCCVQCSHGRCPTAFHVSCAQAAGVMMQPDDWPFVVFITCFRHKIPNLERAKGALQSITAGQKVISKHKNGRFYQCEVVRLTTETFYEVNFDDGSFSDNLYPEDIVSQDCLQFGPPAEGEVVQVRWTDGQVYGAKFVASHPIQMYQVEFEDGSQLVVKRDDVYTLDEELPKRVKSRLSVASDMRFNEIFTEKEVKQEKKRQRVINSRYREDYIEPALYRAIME
Compound,Potency,"activity change, negative = inhibition"
CCOc1ccc2c(c1)c(=O)c(C(=O)c1ccc(CC)cc1)cn2CC(=O)Nc1ccccc1OC,"inconclusive: 3.16 µM [inhibitor, full curve, poor fit]",
COc1ccc(C(=O)Nc2nc(-c3cccs3)cs2)cc1,inactive,
CCc1ccc2c(c1)C(c1ccc([N+](=O)[O-])cc1)=NNC(c1ccc(F)cc1)=N2,"inconclusive: 28.2 µM [inhibitor, partial curve]",
O=C(c1cc(C2CC2)nn1-c1ccccc1)N1CCN(S(=O)(=O)c2ccccc2)CC1,"inconclusive: 17.8 µM [inhibitor, partial curve]",
O=C(CN1CCOCC1)NC1C2CC3CC(C2)CC1C3 (configuration not stated),inactive,
Cc1c(C)n(CC(O)CN(CCO)CCO)c2ccccc12 (configuration not stated),"inconclusive: 70.8 µM [inhibitor, partial curve, poor fit]",
COc1ccc(CNC2CCCc3ccccc32)c(OC)c1 (configuration not stated),active: 50.1 µM,
Cc1cc(C)cc(-n2c(C)c3c(C)nnc(C)c3c2C)c1,"inconclusive: 56.2 µM [inhibitor, partial curve]",
CCOC(=O)c1sc(=S)n(C)c1NC(=O)c1ccccc1Cl,"inconclusive: 63.1 µM [inhibitor, single point]",
CC(=O)N1CCOc2ccc(S(=O)(=O)Nc3cccc(C)n3)cc21,inactive,
COc1cc(CNCc2ccncc2)cc(Br)c1OCc1ccccc1F,inactive,
Oc1ccc(COc2ccccc2Cl)c2cccnc12,active: 79.4 µM,
CC(=O)Sc1nc(-c2ccccc2)[nH]c1S(=O)(=O)c1ccc(C)cc1,active: 12.6 µM,
Cc1ccc(-n2c(=O)c3sc4ccccc4c3n(C)c2=O)cc1F,inactive,
Cc1oc2cc3oc(=O)c(CC(=O)NCc4ccccc4)c(C)c3cc2c1C,inactive,
S=C(N/N=C/c1ccc(Br)cc1)N1CCCCC1,"inconclusive: 22.4 µM [inhibitor, full curve]",
O=[N+]([O-])c1cc(S(=O)(=O)NC2=NCCCCC2)ccc1NCC1CCCCC1,active: 44.7 µM,
C=CCn1c(CCC(O)COCCCCC)n[nH]c1=S (configuration not stated),active: 20 µM,
CC(=NNC(=S)N1CCN(c2ccccn2)CC1)c1nccs1,active: 12.6 µM,
CC(C)c1ccc(NC(=O)C2CCN(C(=O)[C@@H]3Cc4ccccc4CN3)CC2)cc1,inactive,
CCN1C(=NCCN2CCOCC2)N[C@@H](c2ccccc2)C(C(=O)OC)=C1C,"inconclusive: 22.4 µM [inhibitor, partial curve]",
O=C(/C=C/c1ccccc1)N/C(=C/c1ccccc1)C(=O)Nc1ccc(C(=O)O)cc1,active: 50.1 µM,
O=C(CNC(=O)OCc1ccccc1)Nc1ccc(F)cc1,"inconclusive: 31.6 µM [inhibitor, single point]",
COc1ccc(C(c2nnnn2C2CCCC2)N2CCN(C3CCCC3)CC2)cc1OC (configuration not stated),active: 56.2 µM,

Compound,Potency,"activity change, negative = inhibition"
CC1CN(S(=O)(=O)c2cccc(C(=O)Nc3ccccc3N3CCCC3)c2)CC(C)O1 (configuration not stated),"inconclusive: 56.2 µM [inhibitor, partial curve, poor fit]",
COC(=O)/C(=C(/F)Sc1cc(C)c(O)c(C)c1)C(F)(F)F,inactive,
CCCCc1sc(-c2c(C#N)c(N)nc3c2CCCCC3)cc1[N+](=O)[O-],"inconclusive: 22.4 µM [inhibitor, full curve, poor fit]",
O=C(Nc1ccccc1C(F)(F)F)C1CCN(S(=O)(=O)Cc2ccccc2)CC1,inactive,
CCN(CC)CC(=O)c1ccc(-c2ccccc2)cc1,"inconclusive: 50.1 µM [inhibitor, partial curve]",
NC(N)=NC(=O)c1nc(Cl)c(N2CCCCCC2)nc1N,"inconclusive: 50.1 µM [inhibitor, partial curve]",
O=C(NCCCn1ccnc1)c1cc2nc(-c3ccc(Br)cc3)cc(C(F)(F)F)n2n1,"inconclusive: 79.4 µM [inhibitor, partial curve]",
O=C(CSc1ccsc1[N+](=O)[O-])NC1CCCC1,inactive,
COc1ccc(NS(=O)(=O)c2ccc(N/N=C(\C)c3ccncc3)c([N+](=O)[O-])c2)cc1,"inconclusive: 14.1 µM [inhibitor, partial curve]",
CCCSc1ncc(Cl)c(C(=O)Nc2c(C(=O)c3ccc(C)cc3)oc3ccccc23)n1,inactive,
COc1ccc(NS(=O)(=O)c2ccc3oc(SC(C)C(N)=O)nc3c2)cc1 (configuration not stated),"inconclusive: 25.1 µM [inhibitor, partial curve]",
FC(F)(F)c1ccc2c3n(nc2c1)CCN=C3c1ccc(Cl)cc1,"inconclusive: 100 µM [inhibitor, partial curve, poor fit]",
O=C(COC(=O)CCCc1c[nH]c2ccccc12)Nc1ccc2c(c1)OCO2,"inconclusive: 56.2 µM [inhibitor, partial curve, poor fit]",
O=C(CCn1c(=O)oc2ccccc21)NCCCN1CCN(c2ccc(F)cc2)CC1,inactive,
O=C(COC(=O)c1ccccc1NCCO)NCc1cccs1,"inconclusive: 39.8 µM [inhibitor, single point]",
CN1CCN(c2ncnc3c2c(-c2ccccc2)cn3-c2ccc(F)cc2)CC1,,inconclusive: -49.3% [inhibitor]
O=C(/C=C/c1ccco1)N/C(=C\c1ccco1)C(=O)NCCc1nc2ccccc2[nH]1,"inconclusive: 28.2 µM [inhibitor, single point]",
CCOc1ccc(OCC)c(NC(=O)C2C3C=CC(O3)C2C(=O)NCc2ccco2)c1 (configuration not stated),"inconclusive: 89.1 µM [inhibitor, partial curve]",
O=C(Cc1ccc(S(=O)(=O)N2CCOCC2)s1)Nc1ccc2c(c1)CCC2,"inconclusive: 79.4 µM [inhibitor, partial curve]",
CCOc1ccc(NC(=O)CN(C)C(=O)c2cn(-c3ccc(C)cc3)nc2-c2cccc(OC)c2)cc1OCC,"inconclusive: 10 µM [inhibitor, full curve, poor fit]",
CCCN(CC(=O)Nc1ccccc1OC)C(=O)Cn1c(=O)oc2ccccc21,inactive,
O=[N+]([O-])c1ccc(Sc2nccn2Cc2ccccc2)c([N+](=O)[O-])c1,"inconclusive: 50.1 µM [inhibitor, partial curve]",
O=C1NCCN(CC2CCN(CC3CCCC3)CC2)C1=O,"inconclusive: 89.1 µM [inhibitor, partial curve]",
CCCCC1CCC(C(=O)N(CCCC)c2c(N)n(CCCC)c(=O)[nH]c2=O)CC1 (configuration not stated),inactive,

Compound,Potency,"activity change, negative = inhibition"
O=C(Cc1coc2cc3c(cc12)CCC3)OCc1cc(=O)n2c(n1)sc1ccccc12,"inconclusive: 1.12 µM [inhibitor, full curve]",
CCOC(=O)N1CCC(N2C(=O)c3ccccc3C2Nc2ccc3c(c2)OCCO3)CC1 (configuration not stated),"inconclusive: 56.2 µM [inhibitor, partial curve]",
O=C(Cc1ccc(S(=O)(=O)N2CCCC2)s1)N1CCN(c2ccc(F)cc2)CC1,,inconclusive: -51.8% [inhibitor]
O=C(O)CCCN1C(=O)/C(=C\c2ccco2)SC1=S,active: 79.4 µM,
Cc1onc(-c2ccccc2)c1C(=O)Nc1cccc(S(=O)(=O)N2CCCCC2)c1,inactive,
CCCSc1nc(O)c(C(c2ccc(OC)c(O)c2)c2c(O)nc(SCCC)n(C)c2=O)c(=O)n1C,inactive,
Oc1[nH]c2c(Cl)cc(Cl)cc2c1N=NC(=S)NCC1CCCO1 (configuration not stated),"inconclusive: 10 µM [inhibitor, full curve, poor fit]",
CCC(=O)N1CCc2cc(-c3csc(NC(=O)c4ccco4)n3)ccc21,inactive,
COc1cccc(COCC(O)Cn2cnc3cc(C)c(C)cc32)c1 (configuration not stated),active: 3.55 µM,
CC(C)n1c(CCC(=O)O)ccc1-c1ccccc1,inactive,
CCN(CC(=O)N1CCOCC1)S(=O)(=O)c1cc(Cl)ccc1Cl,inactive,
Cc1nn(-c2ccccc2)c(C)c1/C=N/N1CCN(c2ccccc2)CC1,active: 20 µM,
Cc1ccc(C(=O)c2oc3ccc(Cl)cc3c2NC(=O)CN2CCN(C)CC2)cc1,"inconclusive: 39.8 µM [inhibitor, partial curve]",
COc1cc(/C=C(\C#N)c2nc3ccccc3[nH]2)ccc1OCc1ccccc1F,"inconclusive: 22.4 µM [inhibitor, full curve]",
Cc1ccc(OCc2nnc(SCc3nc4ccccc4[nH]3)n2Cc2ccco2)cc1,"inconclusive: 56.2 µM [inhibitor, partial curve]",
COc1ccc(OC)c(CNc2ncc(-c3cccc([N+](=O)[O-])c3)n2C)c1,active: 44.7 µM,
O=C(NC(=S)Nc1cccc(NC(=S)NC(=O)c2ccccc2)c1)c1ccccc1,inactive,
NC(=O)CC(NC(=O)c1cccc(Br)c1)c1ccc(N2CCN(c3ccc(F)cc3)CC2)c([N+](=O)[O-])c1 (configuration not stated),"inconclusive: 56.2 µM [inhibitor, partial curve]",
CSc1ccccc1OCc1cc(C(=O)N2CCN(C)C(c3ccccc3)C2)no1 (configuration not stated),"inconclusive: 20 µM [inhibitor, full curve]",
Cc1ccc(C=C2C(=O)c3ccccc3C2=O)o1,"inconclusive: 7.08 µM [inhibitor, partial curve]",
CCc1c(-c2n[nH]c(=S)n2Cc2ccccc2)csc1C,"inconclusive: 89.1 µM [inhibitor, single point]",
O=C(NCc1ccccc1Cl)c1ccc(CS(=O)(=O)c2ccc(Br)cc2)o1,inactive,
COc1ccc(Nc2ncnc3sc4c(c23)CCCC4)cc1,"inconclusive: 89.1 µM [inhibitor, single point]",
CCN(CC)S(=O)(=O)c1ccc2c(c1)N(CC(=O)N1CCN(c3cccc(C)c3C)CC1)C(=O)CO2,inactive,
